# Out of some 310,000 compounds screened, about 2,200 (0.71%) showed an effect of 50% or more. Effects have a minus sign here. The list shows a part of the results.
# Target: human ether-à-go-go-related gene (hERG) potassium channel (human, UniProt Q12809)
# Assay: primary screen, population patch clamp on CHO cells stably expressing hERG
# human ether-à-go-go-related gene (hERG) potassium channel, sequence (Q12809 whole entry, looked up): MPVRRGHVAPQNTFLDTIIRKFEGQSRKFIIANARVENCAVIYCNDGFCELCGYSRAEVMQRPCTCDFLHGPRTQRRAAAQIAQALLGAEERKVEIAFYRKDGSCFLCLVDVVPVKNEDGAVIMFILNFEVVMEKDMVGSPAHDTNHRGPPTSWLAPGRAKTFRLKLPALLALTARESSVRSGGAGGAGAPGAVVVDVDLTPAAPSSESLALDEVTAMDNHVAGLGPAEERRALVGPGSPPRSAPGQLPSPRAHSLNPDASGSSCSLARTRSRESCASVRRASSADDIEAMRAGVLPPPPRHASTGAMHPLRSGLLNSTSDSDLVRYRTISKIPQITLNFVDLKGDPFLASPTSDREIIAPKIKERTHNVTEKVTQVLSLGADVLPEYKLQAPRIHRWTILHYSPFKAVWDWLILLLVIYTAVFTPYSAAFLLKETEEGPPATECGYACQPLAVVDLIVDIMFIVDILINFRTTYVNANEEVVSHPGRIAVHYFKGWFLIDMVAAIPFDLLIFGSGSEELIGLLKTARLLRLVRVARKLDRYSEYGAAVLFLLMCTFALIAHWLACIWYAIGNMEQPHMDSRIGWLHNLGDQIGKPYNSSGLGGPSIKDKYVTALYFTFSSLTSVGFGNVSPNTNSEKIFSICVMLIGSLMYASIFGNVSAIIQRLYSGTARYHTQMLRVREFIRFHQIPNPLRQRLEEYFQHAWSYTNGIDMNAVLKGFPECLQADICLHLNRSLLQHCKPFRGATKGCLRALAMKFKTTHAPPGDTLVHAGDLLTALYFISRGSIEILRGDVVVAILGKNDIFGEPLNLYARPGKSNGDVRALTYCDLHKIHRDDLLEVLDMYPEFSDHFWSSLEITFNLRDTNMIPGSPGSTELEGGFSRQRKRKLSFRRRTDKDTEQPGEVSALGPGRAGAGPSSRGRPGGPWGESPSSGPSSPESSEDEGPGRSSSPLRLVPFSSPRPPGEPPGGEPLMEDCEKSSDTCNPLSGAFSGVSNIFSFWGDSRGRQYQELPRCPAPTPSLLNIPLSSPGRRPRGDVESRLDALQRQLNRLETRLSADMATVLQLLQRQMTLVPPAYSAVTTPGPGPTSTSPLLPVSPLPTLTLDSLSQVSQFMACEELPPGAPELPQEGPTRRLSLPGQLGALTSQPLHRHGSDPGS
row,Compound,"hERG current change (%, negative = inhibition) at 1uM [%]"
1,C=CCN(c1ccccc1)S(=O)(=O)c1cc(C(=O)NC2=NCCS2)ccc1Cl,24.3
2,COc1cc(OCC(=O)NC(C)C)cc2c1C(=O)O[C@@H](C)CCCC(=O)CCCCC2,13.7
3,CC(C)CCNC(=O)c1ccc(CSCc2cccc(F)c2)o1,-5.66
4,CC(C)(C)c1ccc(OCCCC(=O)N2CCOCC2)cc1,-2.13
5,COc1ccc(NC(=O)CSc2nnc(Cc3cccn3C)n2CCc2ccccc2)cc1OC,6.95
6,O=C(CC12CC3CC(CC(C3)C1)C2)NCC(=O)OCc1cc(=O)oc2ccc3ccccc3c12,15.4
7,COc1ccccc1N(CC(=O)NC(C)(C)C)C(=O)Cn1nnc(-c2ccc(C)o2)n1,2.5
8,O=C(C1CC1)N1CCN(c2ccc([N+](=O)[O-])cc2-n2cccc2)CC1,8.87
9,CCn1c(SCC(=O)OC)nc2sc3c(c2c1=O)CC(C)(C)OC3,6.58
10,Cc1ccc(-c2nc(SCC(=O)N(C)C3CCS(=O)(=O)C3)[nH]c2-c2ccc(C)cc2)cc1 (centres unmarked),-7.85
11,CN(Cc1ccc(Cl)cc1Cl)C(=O)CN1C(=O)NC2(CCCC2)C1=O,-16.9
12,COc1ccc(NC(=S)NC2CCS(=O)(=O)C2)cc1 (centres unmarked),9.64
13,CS(=O)(=O)N(CC(=O)Nc1ccccc1C(=O)N1CCOCC1)c1cccc([N+](=O)[O-])c1,7.66
14,O=C(O)CC(SCC(=O)Nc1ccc(Cl)c(S(=O)(=O)N2CCOCC2)c1)C(=O)O (centres unmarked),1.04
15,C/C=C1/CC(C)C(C)(O)C(=O)OCC2CCN3CCC(OC1=O)C23 (centres unmarked),15.5
16,Cn1c(=O)c2c(O)cc(=O)[nH]c2n(-c2ccccc2)c1=O,14.6
17,NS(=O)(=O)c1ccc(CNC(=O)/C=C/c2ccc(S(=O)(=O)N3CCOCC3)cc2)cc1,14.7
18,Cc1ccccc1N1CCN(CC(=O)Nc2nccs2)CC1,13.2
19,Cc1cc(=O)n2nc(N3CCC(C(=O)NCCc4ccccc4)CC3)sc2n1,7.6
20,COC(=O)NCCOc1cc(C)ccc1C,-1.4
21,Cc1ccnc(N(C(=O)c2cccs2)C(=O)c2cccs2)c1,14
22,COc1ccc(-c2nnc(-c3cc(OC)c(OC)c(OC)c3)o2)cc1OC,6.64
23,O=C1CC(c2ccccc2)NC(=O)N1 (centres unmarked),-4.53

row,Compound,"hERG current change (%, negative = inhibition) at 1uM [%]"
1,O=C(CC1C(=O)NCCN1Cc1ccc(F)cc1)NCCOc1cccnc1 (centres unmarked),5.15
2,CCCCNC(=O)c1cc2c(=O)n3cccc(C)c3nc2s1,12.1
3,COc1cc(NS(=O)(=O)c2ccc(NC(=O)CCC(=O)O)cc2)nc(OC)n1,5.38
4,CC(C)c1cc(C(=O)NC2CCCCC2)no1,2.37
5,Cc1ccc(CNc2ncccc2-c2nc3cc(Cl)ccc3o2)cc1,11.6
6,CC1CCC(C(C)C)C(OCC(O)CNC(C)c2ccccc2)C1.Cl (centres unmarked),10.7
7,COc1ccc(NS(=O)(=O)c2c(C)cc(C)cc2C)cc1,8.76
8,Cc1nnc(SCC(=O)N2CCCC(N3CCN(c4ccc(F)cc4)CC3)C2)o1 (centres unmarked),8.65
9,Cc1cc(NS(=O)(=O)c2ccc(NC(=O)CSc3nc4ncc(Cl)cc4[nH]3)cc2)nc(C)n1,9.5
10,COc1cccc(/C=C(/C#N)c2nc3ccccc3[nH]2)c1OC(C)C(=O)O (centres unmarked),12
11,O=C(O)COc1ccccc1,14.1
12,CCOC(=O)c1n[nH]n2c1nc(=S)c1ccccc12,7.67
13,CCOC(=O)c1sc(N)c(C#N)c1COC(=O)C1=COCCO1,13.3
14,CC(=O)N1CCN(CC(=O)Nc2cc(S(=O)(=O)N3CCOCC3)ccc2C)CC1,4.27
15,O=C(O)C1CC=CCC1C(=O)Nc1ccc(N2CCN(Cc3ccccc3)CC2)cc1 (centres unmarked),17.8
16,COc1ccc(NC(=S)/N=C(\N)Nc2nc(C)c3ccc(C)cc3n2)cc1,2.25
17,COc1ccc(C(=O)NCC(C)NC(=O)c2ccc(OC)cc2)cc1 (centres unmarked),7.94
18,COc1cc(NC(=O)CCNC(=O)Cn2cnc3sc4c(c3c2=O)CCCC4)cc(OC)c1OC,11.9
19,CN(C)c1ccc(-c2nc3ccccc3c(=O)[nH]2)cc1,4.81
20,CN1CCN(CCCNC(=O)c2ccc(CSCc3cccc(Cl)c3)o2)CC1,1.54
21,COc1cc(/C=N/Nc2ccnc(=O)[nH]2)ccc1O,11.3
22,COc1ccc(OC)c(NC(=O)c2cc(-c3cc(C)c(C)cc3O)n[nH]2)c1,17.2
23,O=C1CCC(C(=O)N2CCC(CO)CC2)CN1Cc1ccc(Cl)cc1 (centres unmarked),10.2

row,Compound,"hERG current change (%, negative = inhibition) at 1uM [%]"
1,CCOCCn1c(COc2ccccc2)nc2ccccc21,-13.9
2,CN(Cc1ccco1)C(=O)c1ccc(N2CCCC2=O)cc1,16.8
3,COc1ccc(S(=O)(=O)N2CCCCCC2)cc1C(=O)N(CC(C)C)C1CCS(=O)(=O)C1 (centres unmarked),6.16
4,COc1ccc(OC)c(/C(O)=C/C(=O)C(=O)Nc2cc(C)ccc2OC)c1,15.4
5,COc1ccc(C)cc1NC(=O)CCN1CC(C)OC(C)C1.Cl (centres unmarked),13.4
6,CCS(=O)(=O)Nc1c(C(=O)O)[nH]c2ccccc12,-14.3
7,CC(Cc1ccccc1)NC(=O)c1cc([N+](=O)[O-])ccc1Cl (centres unmarked),7.31
8,Cc1ccc(S(=O)(=O)N2CCC(C(=O)NNC(=O)c3ccccc3O)CC2)cc1,8.01
9,CCCN(CCC)S(=O)(=O)c1cccc(C(=O)N=c2sccn2C)c1,14.1
10,O=C(CCc1nc2ccccc2[nH]1)N1CCN(C(=O)c2ccco2)CC1,9.26
11,CSC(=Nc1ccccc1)C1=C(O)COC1=O,11.4
12,COc1ccccc1NC(=O)COC(=O)c1ccc(N2CCCC2=O)cc1,8.92
13,Cc1ccc(-n2c(SCC(N)=O)nc3c(oc4ccccc43)c2=O)cc1,14.1
14,Cl.c1ccc(CCNCc2ccccc2)cc1,8.02
15,Cc1ccc(OCCNC(=O)/C=C/c2ccccc2)cc1C,1.58
16,COc1ccccc1CNC(=O)[C@@H]1CCCN1C(=O)C1CCN(S(=O)(=O)c2ccc(C)cc2)CC1,1.74
17,Cc1ccc(C(=O)Nn2c(C)nc3ccccc3c2=O)cc1C,19
18,Cc1ccc(S(=O)(=O)N2CCCC(C(=O)NCC3COCCO3)C2)cc1 (centres unmarked),-1.6
19,COCC1CCCN(Cc2cn(-c3ccccc3F)nc2-c2cc(C)sc2C)C1 (centres unmarked),11.8
20,CC(NC(=O)c1ccccc1F)c1nnc(SCC(=O)Nc2nnc(C3CC3)s2)n1C (centres unmarked),6.39
21,CC(Sc1nnc(C2CC2)n1C1CC1)C(=O)N(C)C1(C#N)CCCCC1 (centres unmarked),-1.07
22,Cc1ccccc1N1C(=S)NC2c3ccccc3OC1(C)C2C(=O)N(C)C (centres unmarked),-11.5
23,C/C(=N\NC(=O)C(C)n1nc(C)c([N+](=O)[O-])c1C)c1ccccc1O (centres unmarked),12.1

row,Compound,"hERG current change (%, negative = inhibition) at 1uM [%]"
1,Cc1cc(O)c2c(CN3CCN(Cc4ccccc4)CC3)cc(=O)oc2c1,5.08
2,O=C1[C@H]2C(c3ccccc3)=NN(c3ccccc3)[C@H]2C(=O)N1c1ccccc1,13
3,CCCCn1c(NC(C)=O)c(C#N)c2nc3ccccc3nc21,14.9
4,COc1ccc(-n2c(COc3ccc(Cl)cc3)nnc2SCc2ccc(C#N)cc2)cc1,11.9
5,CC(C)CC1Nc2ncnc(N3CCN(c4ccccc4)CC3)c2N(Cc2ccc(Br)cc2)C1=O.O=C(O)C(F)(F)F (centres unmarked),4.64
6,Cn1c(C(=O)NCCN2CCOCC2)cc2c(=O)n(C)c3ccccc3c21,3.05
7,COc1ccc(Cn2ccnc2SCC(=O)Nc2nnc(C)s2)cc1,9.92
8,O=C1CC(c2ccc(F)cc2)CC2=C1C=Nc1ccccc1N2 (centres unmarked),-21.5
9,CSc1nc(N)nc(SCC(=O)CC(=O)OC(C)C)c1C#N,5.48
10,O=C(CCOc1ccccc1)N1CCN(c2ccc(O)cc2)CC1,-1.99
11,O=C(COC(=O)c1cc(=O)c2ccccc2o1)NC1CCCC1,15.6
12,COC(=O)c1cc(CN2CCN(c3ccccc3)CC2)ccc1O.Cl,9.4
13,CCCC(=O)Nc1c2c(nn1-c1ccc(C)cc1C)CSC2,-4.3
14,COCCNc1oc(-c2ccc(F)cc2)nc1C#N,9.01
15,CCC(=O)N1CCc2cc(Br)cc(S(=O)(=O)CCC(=O)NCCc3ccccc3)c21,8.05
16,Cc1nn(-c2ccccc2)c(Cl)c1/C=N/NC(=O)CNC(=O)c1ccccc1Cl,3.32
17,COc1cc(C2=NOC(C(=O)Nc3ccc(C)cc3)C2)cc(OC)c1OC (centres unmarked),7.87
18,O=c1c2ccccc2nc2n1CCN2,16.1
19,O=C(CCN1CCN(C(=O)c2ccco2)CC1)Nc1ccc(F)cc1,4.91
20,O=C(CN1CCCC1)Nc1sc2c(c1C(=O)Nc1ccc(Br)cc1)CCC2,-0.806
